# Hit rate of the full screen: of about 350,000 compounds, about 700 (0.2%) were called active. The call rests on the fitted dose curve; in most records, active means well fitted inhibition curve with a large enough effect; inconclusive means small, poorly fitted or top-dose-only effect; inactive means flat fitted curve, though single readings scatter. The entries are a selection whose mix differs from that of the whole data set. Where a structure was tested more than once in an assay, its records may differ in their call.
# Biological target: RecQ-like DNA helicase BLM (Homo sapiens) (UniProt P54132)
# Sequence of UniProt P54132 (P54132 whole entry, looked up): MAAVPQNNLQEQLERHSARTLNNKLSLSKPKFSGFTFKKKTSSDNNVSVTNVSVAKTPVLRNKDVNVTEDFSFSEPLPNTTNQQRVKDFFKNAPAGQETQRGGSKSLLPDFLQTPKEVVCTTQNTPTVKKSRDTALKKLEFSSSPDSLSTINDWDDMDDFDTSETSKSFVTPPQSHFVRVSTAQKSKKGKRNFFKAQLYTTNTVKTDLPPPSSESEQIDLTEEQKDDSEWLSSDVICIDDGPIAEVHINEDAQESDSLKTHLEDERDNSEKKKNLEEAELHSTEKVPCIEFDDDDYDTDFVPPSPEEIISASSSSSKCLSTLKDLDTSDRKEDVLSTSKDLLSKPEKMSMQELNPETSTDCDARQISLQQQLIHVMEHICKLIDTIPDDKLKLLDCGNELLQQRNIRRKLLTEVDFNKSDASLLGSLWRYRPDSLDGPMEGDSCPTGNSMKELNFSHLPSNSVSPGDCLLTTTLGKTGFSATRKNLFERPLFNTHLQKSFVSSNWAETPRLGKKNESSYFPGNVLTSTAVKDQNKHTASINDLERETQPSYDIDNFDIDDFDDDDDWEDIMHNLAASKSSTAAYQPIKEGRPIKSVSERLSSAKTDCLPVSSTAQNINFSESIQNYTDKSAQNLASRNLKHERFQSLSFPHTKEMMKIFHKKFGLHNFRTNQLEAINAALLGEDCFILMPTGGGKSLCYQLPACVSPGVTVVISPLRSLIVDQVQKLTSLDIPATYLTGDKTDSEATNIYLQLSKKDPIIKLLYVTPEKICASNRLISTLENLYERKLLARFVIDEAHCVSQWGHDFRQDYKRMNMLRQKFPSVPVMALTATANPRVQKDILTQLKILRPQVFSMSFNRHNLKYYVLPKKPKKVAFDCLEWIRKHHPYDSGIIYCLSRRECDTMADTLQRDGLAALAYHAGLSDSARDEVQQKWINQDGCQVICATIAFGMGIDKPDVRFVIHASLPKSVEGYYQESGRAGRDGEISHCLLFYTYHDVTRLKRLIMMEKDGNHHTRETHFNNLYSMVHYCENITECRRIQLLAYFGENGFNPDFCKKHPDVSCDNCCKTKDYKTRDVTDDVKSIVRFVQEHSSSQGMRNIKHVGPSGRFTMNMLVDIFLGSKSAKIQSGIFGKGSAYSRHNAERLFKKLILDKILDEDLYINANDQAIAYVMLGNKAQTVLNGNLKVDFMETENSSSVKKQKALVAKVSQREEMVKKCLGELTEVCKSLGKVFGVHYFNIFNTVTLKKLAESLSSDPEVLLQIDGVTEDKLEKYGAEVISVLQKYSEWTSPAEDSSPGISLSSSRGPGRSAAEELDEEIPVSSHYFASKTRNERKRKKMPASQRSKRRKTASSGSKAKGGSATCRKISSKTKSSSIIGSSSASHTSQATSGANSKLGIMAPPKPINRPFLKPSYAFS
# Assay: qHTS Assay for Inhibitors of Bloom's syndrome helicase (BLM); further: nearly all actives have a fitted effect of over 35% in size;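 on activity change, negative = inhibition: plate controls were vehicle for no effect and no enzyme for full effect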
# Conditions: recombinant BLM DNA unwinding, fluorescence dequenching; series mostly up to 56.1 µM; activity change, negative = inhibition: at the top concentration
# Potency means the concentration at half of the fitted maximal effect.
Compound,Potency,"activity change, negative = inhibition"
CC(C)NC[C@@H](O)COc1ccc(CCOCC2CC2)cc1,inactive,
NC(N)=Nc1nc(CSCC/C(N)=N\S(N)(=O)=O)cs1,,inactive: 5.51%
COc1ccc(C(CC(=O)N2CCOCC2)c2c(OC)cc(OC)c3c(-c4ccccc4)cc(=O)oc23)cc1 (configuration not stated),,inactive: -20.9%
CC(=O)Nc1cc(OC(C)=O)c2nonc2c1OC(C)=O,active: 1.58 µM,
CCN(Cc1ccncc1)C(=O)C(CO)c1ccccc1 (configuration not stated),inactive,
N=C(N)c1ccccc1,,inactive: -0.722%
O=C(NCCNCC(O)COc1ccc(O)cc1)N1CCOCC1 (configuration not stated),,inactive: 3.48%
COc1ccc(C(=O)NCc2cccnc2)cc1C(=O)NCc1cccnc1,,inactive: 1.88% [at 21.4 µM]
O=[N+]([O-])c1cc2c(cc1/C=N/n1c(-c3ccccc3)n[nH]c1=S)OCO2,active: 17.8 µM,
COc1ccc2[nH]cc(CCNC(C)=O)c2c1,inactive,
O=Nc1c(-c2c(O)[nH]c3ccccc23)[nH]c2ccccc12,,inactive: -11.3%
NCCS(=O)(=O)O,inactive,
C[C@@](N)(Cc1ccc(O)cc1)C(=O)O,,inactive: 1.9%
CC(C)(C)NC[C@H](O)c1cc(O)cc(O)c1,,inactive: -6.94%
COCCNC(=O)Nc1ccc2nc(-c3ccco3)c(-c3ccco3)nc2c1,active: 12.6 µM,
C=C[C@H](N)CCC(=O)O,inactive,
CC(=O)OC1C(=O)[C@@]2(C)C(O)CC3OC[C@]3(OC(C)=O)C2C(OC(=O)c2ccccc2)[C@]2(O)CC(OC(=O)C(O)C(NC(=O)c3ccccc3)c3ccccc3)C(C)=C1C2(C)C (some centres not stated),,inactive: 6.71%
O=c1[nH]c2ccccc2c2ccccc12,,inactive: -9.61%
C#CCN(C)Cc1ccccc1,inactive,

Compound,Potency,"activity change, negative = inhibition"
CN/C(=C/[N+](=O)[O-])NCCSCc1ccc(CN(C)C)o1,,inactive: -6.21%
CCN(CC)CCNC(=O)c1cc(S(C)(=O)=O)ccc1OC,inactive,
O=C1c2ccccc2C(=O)c2c(NCCCN(CCO)CCO)cccc21,active: 15.8 µM,
CC(C)C[C@@H](CC(=O)N[C@H](CC(=O)N[C@@H]1CCCC[C@H]1C(=O)N[C@H](CC(=O)N[C@@H](CCC(=O)O)CC(=O)O)Cc1c[nH]c2ccccc12)C(C)C)NC(=O)[C@@H]1CCCC[C@H]1N,active: 7.08 µM,
CC1=C(\C=C/C(C)=C/C=C\C(C)=C\C(=O)O)C(C)(C)CCC1,inactive,
Nc1ccn([C@@H]2CC[C@H](CO)O2)c(=O)n1,,inactive: -0.585% [at 21.4 µM]
NC(C(=O)O)C(O)C(=O)O (configuration not stated),,inactive: 0.865%
O=C(COC(=O)c1ccc(NS(=O)(=O)c2cccs2)cc1)NCc1ccco1,active: 14.1 µM,
Nc1nc(SCc2ccc([N+](=O)[O-])cc2)c2ncn(C3OC(CO)C(O)C3O)c2n1 (configuration not stated),,inactive: -4.58%
Nc1c(C(=O)NC2CC2)sc2nc3c(c(-c4ccco4)c12)CC/C3=C/c1ccco1,active: 5.62 µM,
Cn1c(=O)c(C(=O)COC(=O)c2cc(-c3ccco3)nc3ccccc23)c(N)n(CC2CC2)c1=O,,inactive: -27.8%
CN(C)CCC[C@@]1(c2ccc(F)cc2)OCc2cc(C#N)ccc21,inactive,
O=C(Cc1cccs1)N/N=C/C=C/c1ccco1,active: 25.1 µM,
O=Nc1c(-c2c(O)[nH]c3cc(Br)ccc23)[nH]c2ccccc12,,inactive: -16%
CC[C@H](C)C(=O)O[C@H]1CCC=C2C=C[C@H](C)[C@H](CC[C@@H]3C[C@@H](O)CC(=O)O3)[C@H]21,inactive,
CC(=O)c1ccc(NC(=O)c2ccc3nc(-c4ccco4)c(-c4ccco4)nc3c2)cc1,active: 15.8 µM,
O=C(/C=C/c1ccc(O)c(O)c1)OCCc1ccccc1,inactive,
NNc1nncc2ccccc12,inactive,
COc1ccc([C@H]2Sc3ccccc3N(CCN(C)C)C(=O)[C@H]2OC(C)=O)cc1,,inactive: 1.31% [at 21.4 µM]

Compound,Potency,"activity change, negative = inhibition"
COc1cccc(/C=N/Nc2nc(Nc3ccc([N+](=O)[O-])cc3)nc(N3CCCC3)n2)c1O,active: 28.2 µM,
O=C(OCC1OC(OC(=O)c2cc(O)c(O)c(OC(=O)c3cc(O)c(O)c(O)c3)c2)[C@@H](OC(=O)c2cc(O)c(O)c(OC(=O)c3cc(O)c(O)c(O)c3)c2)C(OC(=O)c2cc(O)c(O)c(OC(=O)c3cc(O)c(O)c(O)c3)c2)C1OC(=O)c1cc(O)c(O)c(OC(=O)c2cc(O)c(O)c(O)c2)c1)c1cc(O)c(O)c(OC(=O)c2cc(O)c(O)c(O)c2)c1 (some centres not stated),active: 0.0708 µM,
CC(=O)[C@]1(O)Cc2c(O)c3c(c(O)c2[C@@H](O[C@H]2C[C@H](N)[C@H](O)[C@H](C)O2)C1)C(=O)c1ccccc1C3=O,,inactive: -56.3%
C=CC1(C)CC(=O)C2(O)C(C)(O1)C(OC(C)=O)C(O)C1C(C)(C)CCC(O)C12C (configuration not stated),,inactive: -0.934%
Nc1ncnc2c1c(-c1ccc(Oc3ccccc3)cc1)cn2C1CCCC1,,inactive: -13.6%
CCOc1ccc2nc(N3C(=O)/C(=C/c4ccc(Cl)cc4)NC3=S)sc2c1,active: 28.2 µM,
CCC(C)N(C)C(=O)c1cc2ccccc2c(-c2ccccc2Cl)n1 (configuration not stated),,inactive: -12.8%
COc1cc2c(cc1C(F)(F)F)N(C(=O)Nc1cc(F)cc(-c3cccnc3)c1)CC2,,inactive: -24.3%
CN(C)c1nc(N(C)C)nc(N(C)C)n1,inactive,
O=C(COC(=O)c1cccc(S(=O)(=O)N2CCN(c3ccccc3)CC2)c1)NCc1ccco1,active: 17.8 µM,
CC(=O)O[C@H]1C(=O)[C@@]2(C)C([C@H](OC(=O)c3ccccc3)[C@]3(O)C[C@H](OC(=O)[C@H](O)[C@@H](NC(=O)c4ccccc4)c4ccccc4)C(C)=C1C3(C)C)[C@]1(OC(C)=O)CO[C@@H]1C[C@H]2O (some centres not stated),,inactive: -12.6%
COc1ccccc1OCC(O)CN1CCN(CC(=O)Nc2c(C)cccc2C)CC1 (configuration not stated),,inactive: -3.41%
O=[N+]([O-])c1cccc2cn[nH]c12,inactive,
CC(=O)OCC(=O)[C@@]1(O)CCC2C3CCC4=CC(=O)CC[C@]4(C)C3C(=O)C[C@]21C (some centres not stated),,inactive: -7.37%
O=c1c(O)c(-c2ccc(O)cc2O)oc2cc(O)cc(O)c12,inactive,
C=C[C@]1(C)CC(=O)[C@@]2(O)[C@@]3(C)C(O)CCC(C)(C)C3C(O)C(OC(C)=O)[C@@]2(C)O1 (some centres not stated),,inactive: 3.19%
COc1ccc(C2CNC(=O)C2)cc1OC1CCCC1 (configuration not stated),inactive,
Fc1ccc(NC(=S)Nc2cccc3cnccc23)cc1,active: 22.4 µM,
Cc1ccc(-c2nn3c(C)nnc3s2)cc1NC(=O)c1ccc(-c2ccc(Cl)cc2Cl)o1,active: 11.2 µM,
